B1: LINE1-full (parent)
chain: UACGUAGGUGGUUUUCCCCUGAUAGUGCUAAGGGGGCCUGGAAGUUUGGACUGGGCAGAGCUCAACACAGCGUGGCAAAGUGGCUGUGGCUAGACUGCCUCUCUGGAUUCCUCGUCACUCAGCAGGGCAUCUCUGAGAGAAAUGCC

The source gives no read counts; variants with many changes may rest on few reads.

The series covers variants of B1. Briefly: self-cleavage, relative activity (ratio to wild type); higher = more cleavage; in vitro, sequencing; the parent is a self-cleaving ribozyme.
For the variant UACGUAGGUGGUUUUCCCCUGAUAGUGCUAAGGGGGCCUGGGAGUUAGGACUGGGCAGAGCUCAACACAGCGUGGCAAAGUGGCUGUGGCUAGACUGCCUCUCUGGAUACCCCGUCACUCAGCAGGGCAUCUCUGAGAGAAGUGCC [A42G U47A U109A U112C A142G], the self-cleavage was found to be 0. The same measure for UACGUAGGUGGUUUUCCCCUGAUAGUGCUAAGGGGGCCUGGGAGCUUGGACUGGGCAGAGCUCAACACAGCGUGGCAAAGUGGCUGUGGCUAGACUGCCUCUCUGGAUUCCUCGUCACACAGCAGGGCAUCUCUGAGAGAAAUGCC [A42G U45C U119A]: 0; for UACGUAGGUGGUUUUCCCCUGAUAGUGCUAAGGGGGCCUGGGAGUUUGGACUGGGCAGAGCUCAACACAGCGUGGCAAAGUGGCUGUGGCUAGACUGCCUCUCUGGAUCCCUCGUCACUCAGCAGGGCAUCUCUGAGAGGAAUGCC [A42G U109C A140G]: 1.5.

As for UACGUAGGUGGUUUUCCCCUGAUAGUGCUAAGGGGGCCUGGGAGUCUGGACUGGGCAGAGCACAACACAGCGUGGCAAAGUGGCUGUGGCUAGACUGCCUCUCUGGAUACCUCGUCACUCAGCAGGGCAUCUCUGAGAGAAAUGCC [A42G U46C U62A U109A], the self-cleavage worked out at 0.11. The same measure for UACGUAGGUGGUUUUCCCCUGAUAGUGCUAAGGGGGCCUGGGAGUUUGGACUGGGCAGAGCACAACACAGCGUGGUAAAGUGGCUGUGGCUAGACUGCCUCUCUGGAUUCCUCGUCACACAGCAGGGCAUCUCUGAGAGAAAUGCC [A42G U62A C76U U119A]: 0.05; for UACGUAGGUGGUUUUCCCCUGAUAGUGCUAAGGGGGCCUGGGAGCUUGGACUGGGCAGGGCUCAACACAGCGUGGCAAAGUGGCUGUGGCUAGACUGCCUCUUUGGAUUCCUCGUCACUCAGCAGGGCAUCUCUGAGAGCAAUGCC [A42G U45C A59G C103U A140C]: 0.66. Take UACGUAGGUGGUUUUCCCCUGAUAGUGCUAAGGGGGCCUGGGAGUUUGGACUGGGCAGAGCCCAACACAGCGUGGCAAAGUGGCUGUGGCUAGACUGCCACUCUGGAUUCCUCGUCACUCAGCAGGGCAUCUCUGAGAGAAAUGCC [A42G U62C U100A]: the self-cleavage was determined as 0.07.

Consider UACGUAGGUGGUUUUCCCCUGAUAGUGCUAAGGGGGCCUGGGAGUUUGGACUGGGCAGAGCUCAACACAGCGAGGCAAAGUGGCUGAGGCUAGACUGCCUCUCUGGAUUCCUCGUCACUCAGCAGGGCAUCUCUGAGAGAAAUGCC [A42G U73A U87A], for which the self-cleavage was 0. UACGUAGGUGGUUUUCCCCUGAUAGUGCUAAGGGGGCCUGGGAGUUUGGACUGGGCAGAGCUCAACACAGCGUGGCAAAGUGGCUGUGGCUAGACUGCCUCUCAGGAUUCCUCGUCACUCAGCAGGGCAUCUCUGAGAGAGAUGCC [A42G U104A A141G]: the self-cleavage is 1.55. For UACGUAGGUGGUUUUCCCCUGAUAGUGCUAAGGGGGCCUGGGAGUUCGGACUGGGCAGAGCUCAACACAGCGUAGCAAAGUGGCUGUGGCUAGACUGCCUCUCUGGAUUCCUCGUCACUCAGCAGGGCAUCUCUGAGAGAAAUGCC [A42G U47C G74A], the self-cleavage worked out at 0.77.

For the variant UACGUAGGUGGUUUUCCCCUGAUAGUGCUAAGGGGGCCUGGGAGUUUGGACUGGGCAGAGCUCAACACAGCGUGGCAAAGUGGCUGUGGCUAGACUGCCUCUCUGGAUCCCUCGUCACUCAGCAGGGCAUCUCUGAGAGAUAUGCC [A42G U109C A141U], the self-cleavage came to 1.04. Regarding UACGUAGGUGGUUUUCCCCUGAUAGUGCUAAGGGGGCCUGGGAGAUUGGACUGGGCAGAGCUCAACACAGCGUGGCAAAGUGGCUGUGGCUAGACUGCCUCUCUGGAUUCCCCGUCACUCAGCAGGGCAUCUCUGAGAGAAAUGCC [A42G U45A U112C], the self-cleavage was found to be 1.16. The figure for UACGUAGGUGGUUUUCCCCUGAUAGUGCUAAGGGGGCCUGGGAGUUCGGACUGGGCAGAGCUCAACACAGCGUGGCAAAGUGGCUGUGGCUAGACUGCCUCUCUGGAUUCCUCGUCACUCAGCAGGGCGUCUCUGAGAGAAAUGCC [A42G U47C A129G] is 0; for UACGUAGGUGGUUUUCCCCUGAUAGUGCUAAGGGGGCCUGGGAGUUUGGACUGGGCAGAGCUCAACACAGCGUGGCAAAGUGGCUGUGGCUAGACAGCCUCUCUGGGUUCCUCGUCACUCAGCAGGGCAUCUCUGAGAGAAAUGCC [A42G U96A A107G] it is 0.18; for UACGUAGGUGGUUUUCCCCUGAUAGUGCUAAGGGGGCCUGGGAGUUUGGACUGGGCAGAGCUCAACACAGCGUGGCAAAGUGGCCGUGGCUAGACUGCCUCUCUGGAUUCCUCGUCGCUCAGCAGGGCAUCUCUGAGAGAAAUGCC [A42G U85C A117G] it is 0. As for UACGUAGGUGGUUUUCCCCUGAUAGUGCUAAGGGGGCCUGGGAGUUUGGACUGGGCAGAGCUCAACACAGCGUGGCAAAGUGGCAGUGGCUAGACUGCCUCUCUGGAUUCCUCGUCACUCAGCAGGGCAUCUCUGAGAGAAGUGCC [A42G U85A A142G], the self-cleavage turned out to be 0.15. The figure for UACGUAGGUGGUUUUCCCCUGAUAGUGCUAAGGGGGCCUGGGAGUUUGGACUGGGCAGAGCUCAACACAGCGUGGCAAAGUGGCCGUGGCUAGACUGCCUCUCUGGAUUCCUCGUCACUCAGCAGGGCACCUCUGAGAGAUAUGCC [A42G U85C U130C A141U] is 0.14.

UACGUAGGUGGUUUUCCCCUGAUAGUGCUAAGGGGGCCUGGGAGUUUGGACAGGGCAGAGCUCGACUCAGCGUGGCAAAGUGGCUGUGGCUAGACUGCCUCUCUGGAUUCCUCGUCACUCAGCAGGGCAUCUCUGAGAGAAAUGCC [A42G U52A A64G A67U]: the self-cleavage was found to be 0.05.

As to UACGUAGGUGGUUUUCCCCUGAUAGUGCUAAGGGGGCCUGGGAGUUUGGACAGGGCAGAGCUCAACACAGCGUGGCAAAGUGGCUGUGACUAGACUGCCUCUCUGGAUUCCUCGUCACUCAGCAGGGCAUCUCUGAGAGAAAUGCC [A42G U52A G89A], the self-cleavage was 0.05. For the variant UACGUAGGUGGUUUUCCCCUGAUAGUGCUAAGGGGGCCUGGGAGUUUGGACUGGGCAGAGCUCAACACAGCGUGGCAAAGUGGCUGUGGCUAGACUGCCUCUCUGGACUCCUCGUCACCCAGCAGGGCAUCUCAGAGAGAAAUGCC [A42G U108C U119C U134A], the self-cleavage amounted to 2.3.

In the case of UACGUAGGUGGUUUUCCCCUGAUAGUGCUAAGGGGGCCUGGGAGUUAGGACUGGGCUGAGCUCAACACAGCGUGGCAAAGUGGCUGUGGCUAGACUGCCUCUCUGGAUUCCUCGUCACUCAGCAGGGCAUCUCUGAGGGUAAUGCC [A42G U47A A57U A138G A140U], the self-cleavage is 0.03. UACGUAGGUGGUUUUCCCCUGAUAGUGCUAAGGGGGCCUGGGAGGUUGGACUGGGCAGAGCUCAACACAGCGUGGCAAAGUGGCUGUGGCUGGACUGCCUCUCUGGAUUCCUCGUCACUCAGCAGGGCACCUCUGAGGGAAAUGCC [A42G U45G A92G U130C A138G]: the self-cleavage is 0. For the variant UACGUAGGUGGUUUUCCCCUGAUAGUGCUAAGGGGGCCUGGGAGUUUGGACUGGGCAGAGCUCAACACAGCGUGGCAAAGUGGCUGUGGCUAGACUGCCUCUCUGGAUCCCUCGUCACUCAGCAGGGUAUCUCUGAGAGAAAUGCC [A42G U109C C128U], the self-cleavage is 1.26.

For UACGUAGGUGGUUUUCCCCUGAUAGUGCUAAGGGGGCCUGGGAGUUUGGACUGGGCAGAGCUCAACACAGCGUGGCAAAGUGGCUGUGGCUAGACUGCCCCUCUGGAUUCCUCGUCACUCUGCAGGGCAUCUCUGAGGGAAAUGCC [A42G U100C A121U A138G], the self-cleavage came to 1.17. The same measure for UACGUAGGUGGUUUUCCCCUGAUAGUGCUAAGGGGGCCUGGGAGUUUGGACUGGGCAGAGCCCAACACAGCGUGGCAAAGUGGCUGUGGCUAGACUGCCUCUCUGGAUUCCUCGUCACUCAGCAAGGCAUCUCUGUGAGAAAUGCC [A42G U62C G125A A136U]: 0.03; for UACGUAGGUGGUUUUCCCCUGAUAGUGCUAAGGGGGCCUGGGAGUCUGGACUGGGCAGAGCUCAACACAGCGUGGCAAAGUGGCUGUGGCUAGACCGCCUCUCUGGAUUCCUCGUCACUCAGCAAGGCAUCUCUGAGAGAAAUGCC [A42G U46C U96C G125A]: 0.18; for UACGUAGGUGGUUUUCCCCUGAUAGUGCUAAGGGGGCCUGGGAGUUUGGACUGGGCAGAGCUCAACACAGCGCGGCAAAGUGGCUGAGGCUAGACUGCCUCUCUGGAUUCCUCGUCACUCAGCAGGGCAUCUCUGAGAGAAAUGCC [A42G U73C U87A]: 0.32. In the case of UACGUAGGUGGUUUUCCCCUGAUAGUGCUAAGGGGGCCUGGGAGAUUGGACUGGGCAGAGCUCAUCACAGCGUGGCAAAGCGGCUGUGGCUAGACUGCCUCUCUGGAUUCCUCGUCACUCAGCAGGGCAUCUCUGAGAGAAAUGCC [A42G U45A A65U U81C], the self-cleavage is 0.29. With UACGUAGGUGGUUUUCCCCUGAUAGUGCUAAGGGGGCCUGGGAGUUUGGACUGGGCAGAGCUCAACACAGCGAGGCAAAGUGGCUGUGGCUAGACUGCCUCUCUGGAUUCCUCGUCACUCAGCAGGGCAUCUCAGAGAGAAAUGCC [A42G U73A U134A], the self-cleavage was 0.84. The same measure for UACGUAGGUGGUUUUCCCCUGAUAGUGCUAAGGGGGCCUGGGAGUUUGGACUGGGCAGAGCUCAACACAGCGAGGCAAAGUGGCUGUGGCUAGACUGCCUCUCUGGAUUCCUCGCCACUCAGCAGGGCAUCUCUGAGAGAAAUCUC [A42G U73A U115C G144C C145U]: 2.35. The same measure for UACGUAGGUGGUUUUCCCCUGAUAGUGCUAAGGGGGCCUGGGAGUUUGGACUGGGCAGAGCCCUACACAGCGUGGCAGAGUGGCUGUGGCUAGACUGCCUCUCUGGAUUCCUCGUCUCUCAGCAGGGCAUCUCUGAGAGCAAUGCC [A42G U62C A64U A78G A117U A140C]: 0; for UACGUAGGUGGUUUUCCCCUGAUAGUGCUAAGGGGGCCUGGGAGUUUGGACUGGGCAGAGCUCAACACAGCGUGGCAAAGUGGCUGAGGCUAGACUGCCUCUCUGGAUUCCUCGUCGCUCAGCAGGGCAUCUCUGAGAGAAAUGCC [A42G U87A A117G]: 0. The figure for UACGUAGGUGGUUUUCCCCUGAUAGUGCUAAGGGGGCCUGGGAGUUUGGACUGGGCAGAGCUCAACACAGCGUGGCAAAGUGGCUGUGGCUAGACUGCCUCUCUGGAUCCCCCGUCACUCAGCAGGGCAUCUCUGAGAGAAGUGCC [A42G U109C U112C A142G] is 1.41. Consider UACGUAGGUGGUUUUCCCCUGAUAGUGCUAAGGGGGCCUGGGAGUUUGGACUGGGCAGAGCUCAACACAGCGUGGCAAAGUGGCUGUGGCUAGACUGCCUCACUGGAUUCCUCGUCACUCAGCAGGGCAUCUCUGAGAGAGAUGCC [A42G U102A A141G], for which the self-cleavage was found to be 2.17.

Regarding UACGUAGGUGGUUUUCCCCUGAUAGUGCUAAGGGGGCCUGGGAGUUUGGACUGGGCAGAGCUCAACACAGCGUGGCAAAGUGGCUGUGGCUAGACUGCCUCUCUGGAUUCCUCGACACUCAGUAGGGCAUCUCUGAGAGAAAUGCC [A42G U115A C123U], the self-cleavage came to 1.53. With UACGUAGGUGGUUUUCCCCUGAUAGUGCUAAGGGGGCCUGGGAGUUUGGACUGGGCAGAGCUCAACACAGCGUGGCAAAGUGGCUGUGGCUAGACUGCCUCUCUGGAUUCCUCGUCACCCAGCAGGGCAUCUCUGAGAGAGAUGCC [A42G U119C A141G], the self-cleavage is 2.4.

Consider UACGUAGGUGGUUUUCCCCUGAUAGUGCUAAGGGGGCCUGGGAGUCUGGACUGGGCAGAGCUCAACACAGCGUGGCAAAGUGGCUGUGGCUAGACUGCCUCUCUGGAUUCCUCGUCACUCAGCAGGGCAUCUCCGAGAGAAAUGCC [A42G U46C U134C], for which the self-cleavage turned out to be 2.43.

Take UACGUAGGUGGUUUUCCCCUGAUAGUGCUAAGGGGGCCUGGGAGUUUGGACUGGGCAGAGCUCAACACAGCGAGGCAAAGUGGCUGUGGCUAGACUGCCUCUCCGGAUUCCUCGUCACUCAGCAGGGCAUCUCUGAGAGAAAUGCC [A42G U73A U104C]: the self-cleavage amounted to 2.73. The figure for UACGUAGGUGGUUUUCCCCUGAUAGUGCUAAGGGGGCCUGGGAGUUUGGACUGGGCAGAGCCCAACACAGCGUGGCAAAGUGGCUGUGGCUAGACUGCCCCUCUGGAUUCCUCGUCACUCAGCUGGGCAUCUCUGAGAGAAAUGCC [A42G U62C U100C A124U] is 0.06.

For the origin of these results see the RNAGym collection of RNA variant scans (doi:10.7554/elife.90254).
